# According to paper PMC12820563:
# This is one part of the list. The list includes weakly bound sequences.
# Biological target: T1, MBP-FoxP3dN (UniProt Q99JB6)
# T1 sequence: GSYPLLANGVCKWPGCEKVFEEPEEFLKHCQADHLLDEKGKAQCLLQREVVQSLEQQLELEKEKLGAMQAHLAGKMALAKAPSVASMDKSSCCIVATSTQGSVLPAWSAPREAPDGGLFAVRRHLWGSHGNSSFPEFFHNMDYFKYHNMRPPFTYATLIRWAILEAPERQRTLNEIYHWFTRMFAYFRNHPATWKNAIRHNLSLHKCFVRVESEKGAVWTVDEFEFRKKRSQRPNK
# Test: PD-seq (MBP pull-down with sequencing)
# Settings: 20 mM Tris-HCl pH 7.5, 100 mM NaCl, 1.5 mM MgCl2, 0.4 uM protein, 0.1 uM dsDNA library, 30 min, room temperature, amylose pull-down; high values mean tight binding; double strand, one strand shown
row,Sequence,binding signal (RPM ratio (pull-down/input))
1,GATGATTGTTCTCCCAGCTGATGAATTCACTAATTCGAGTAAACAAATTTTCCTAATCTTTCTGTTCAAGCGCCATCTAC,0.292
2,GATGATTGTTCTCCCAGCTGATGAATTCATTCCCTCGAGTAAACAAATTTTCCTAATCTTTCTGTTCAAGCGCCATCTAC,0.308
3,GATGATTGTTCTCCCAGCTGATGAATTAAACACCTCGAGTAAACAAATTTTCCTAATCTTTCTGTTCAAGCGCCATCTAC,0.624
4,GATGATTGTTCTCCCAGCTGATGAATTGCTGAAGTCGAGTAAACAAATTTTCCTAATCTTTCTGTTCAAGCGCCATCTAC,0.352
5,GATGATTGTTCTCCCAGCTGATGAATTTTTAACGTCGAGTAAACAAATTTTCCTAATCTTTCTGTTCAAGCGCCATCTAC,0.304
6,GATGATTGTTCTCCCAGCTGATGAATTGATGAATTCGAGTAAACAAATTTTCCTAATCTTTCTGTTCAAGCGCCATCTAC,0.694
7,GATGATTGTTCTCCCAGCTGATGAATTTCACTATTCGAGTAAACAAATTTTCCTAATCTTTCTGTTCAAGCGCCATCTAC,0.422
8,GATGATTGTTCTCCCAGCTGATGAATTGATCCGCTCGAGTAAACAAATTTTCCTAATCTTTCTGTTCAAGCGCCATCTAC,0.273
9,GATGATTGTTCTCCCAGCTGATGAATTAATGGAATCGAGTAAACAAATTTTCCTAATCTTTCTGTTCAAGCGCCATCTAC,0.247
10,GATGATTGTTCTCCCAGCTGATGAATTCCTGCTATCGAGTAAACAAATTTTCCTAATCTTTCTGTTCAAGCGCCATCTAC,0.518
11,GATGATTGTTCTCCCAGCTGATGAATTAATATTGTCGAGTAAACAAATTTTCCTAATCTTTCTGTTCAAGCGCCATCTAC,1.18
12,GATGATTGTTCTCCCAGCTGATGAATTAGACCCATCGAGTAAACAAATTTTCCTAATCTTTCTGTTCAAGCGCCATCTAC,0.381
13,GATGATTGTTCTCCCAGCTGATGAATTCTGCAGGTCGAGTAAACAAATTTTCCTAATCTTTCTGTTCAAGCGCCATCTAC,1.07
14,GATGATTGTTCTCCCAGCTGATGAATTTGTCGGTTCGAGTAAACAAATTTTCCTAATCTTTCTGTTCAAGCGCCATCTAC,3.1
15,GATGATTGTTCTCCCAGCTGATGAATTACCCCCGTCGAGTAAACAAATTTTCCTAATCTTTCTGTTCAAGCGCCATCTAC,0.246
16,GATGATTGTTCTCCCAGCTGATGAATTCCCGCGTTCGAGTAAACAAATTTTCCTAATCTTTCTGTTCAAGCGCCATCTAC,1.33

row,Sequence,binding signal (RPM ratio (pull-down/input))
1,GATGATTGTTCTCCCAGCTGATGAATTCGCACCGTCGAGTAAACAAATTTTCCTAATCTTTCTGTTCAAGCGCCATCTAC,0.391
2,GATGATTGTTCTCCCAGCTGATGAATTCTGTGTCTCGAGTAAACAAATTTTCCTAATCTTTCTGTTCAAGCGCCATCTAC,2.76
3,GATGATTGTTCTCCCAGCTGATGAATTACCTAGTTCGAGTAAACAAATTTTCCTAATCTTTCTGTTCAAGCGCCATCTAC,0.315
4,GATGATTGTTCTCCCAGCTGATGAATTCAGATAATCGAGTAAACAAATTTTCCTAATCTTTCTGTTCAAGCGCCATCTAC,0.3
5,GATGATTGTTCTCCCAGCTGATGAATTAGATTAATCGAGTAAACAAATTTTCCTAATCTTTCTGTTCAAGCGCCATCTAC,0.347
6,GATGATTGTTCTCCCAGCTGATGAATTATGTGTCTCGAGTAAACAAATTTTCCTAATCTTTCTGTTCAAGCGCCATCTAC,3.3
7,GATGATTGTTCTCCCAGCTGATGAATTGCTCAATTCGAGTAAACAAATTTTCCTAATCTTTCTGTTCAAGCGCCATCTAC,0.549
8,GATGATTGTTCTCCCAGCTGATGAATTTAGCGCTTCGAGTAAACAAATTTTCCTAATCTTTCTGTTCAAGCGCCATCTAC,0.95
9,GATGATTGTTCTCCCAGCTGATGAATTAGAGTTGTCGAGTAAACAAATTTTCCTAATCTTTCTGTTCAAGCGCCATCTAC,0.891
10,GATGATTGTTCTCCCAGCTGATGAATTTACCTACTCGAGTAAACAAATTTTCCTAATCTTTCTGTTCAAGCGCCATCTAC,0.557
11,GATGATTGTTCTCCCAGCTGATGAATTCAACAGTTCGAGTAAACAAATTTTCCTAATCTTTCTGTTCAAGCGCCATCTAC,0.431
12,GATGATTGTTCTCCCAGCTGATGAATTTTTTACTTCGAGTAAACAAATTTTCCTAATCTTTCTGTTCAAGCGCCATCTAC,0.261
13,GATGATTGTTCTCCCAGCTGATGAATTAGGCGGCTCGAGTAAACAAATTTTCCTAATCTTTCTGTTCAAGCGCCATCTAC,0.691
14,GATGATTGTTCTCCCAGCTGATGAATTCTGGGATTCGAGTAAACAAATTTTCCTAATCTTTCTGTTCAAGCGCCATCTAC,0.376
15,GATGATTGTTCTCCCAGCTGATGAATTCCGTCGGTCGAGTAAACAAATTTTCCTAATCTTTCTGTTCAAGCGCCATCTAC,0.291
